Among the data in publication PMC10726135 are binding signal (log2 normalized intensity) values, retold here.

This is one part of the list. At the low end of the ranking the order means little. The protein was read in a cell extract, so binding may be indirect.

The experiment addresses T1, HNF4alpha2 (COS-7 nuclear extract) (UniProt P41235).
T1 sequence: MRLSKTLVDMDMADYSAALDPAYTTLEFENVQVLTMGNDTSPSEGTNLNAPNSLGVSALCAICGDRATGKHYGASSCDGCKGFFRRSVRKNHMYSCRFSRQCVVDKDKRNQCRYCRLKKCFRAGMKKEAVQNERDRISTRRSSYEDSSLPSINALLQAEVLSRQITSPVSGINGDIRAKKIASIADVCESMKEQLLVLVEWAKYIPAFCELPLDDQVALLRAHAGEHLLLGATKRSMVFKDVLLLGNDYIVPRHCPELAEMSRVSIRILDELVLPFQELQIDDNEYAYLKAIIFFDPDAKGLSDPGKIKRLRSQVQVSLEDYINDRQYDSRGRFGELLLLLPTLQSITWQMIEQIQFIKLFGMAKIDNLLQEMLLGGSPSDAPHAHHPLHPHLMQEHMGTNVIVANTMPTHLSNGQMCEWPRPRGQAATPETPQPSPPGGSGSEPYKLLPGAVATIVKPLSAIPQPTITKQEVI
Nature of the experiment: protein-binding microarray. As to conditions: COS-7 nuclear extract on double-stranded Agilent 4x180k PBM; binding buffer, salt, pH and temperature not given; high values mean tight binding; double strand, one strand shown; sequences stand for … in …GCCTAGGGAGATTAGAGTATCGGTCGA
Turning to CAGAGGAAGCAATCAAGCAATCATATATGC, the binding signal (log2 normalized intensity) was -0.656.

As to GGCGCTGAACTTTGCCTTGTACACAAAGAC, the binding signal (log2 normalized intensity) is 1.98.

On to AGTTCTGTCCTTTGTCCCCCACCTGTGAAG, for which the binding signal (log2 normalized intensity) was determined as 4.64.

As for CTTAATCCTTGTCTGTTTGGCCTTAGGTCC, the binding signal (log2 normalized intensity) worked out at 2.53.

With GAACAGAGGGGTCTGAGCACATCACACAGG, the binding signal (log2 normalized intensity) was -1.05.

Consider CTGCTGGGTCAGTTTATCTAAGATTCCCCC, for which the binding signal (log2 normalized intensity) turned out to be 3.4.

GTTGGACTTTGGACCTTTGTGTGTGTGTGT: the binding signal (log2 normalized intensity) turned out to be 7.93.

Take TCCCTGAAGGCCAGGCAGCACAATTTGTGT: the binding signal (log2 normalized intensity) was -0.871.

As for GTGAGGTCAGTTGATAAACAGATAACTGGG, the binding signal (log2 normalized intensity) turned out to be 0.0869.

Take GGCAGAATCTAGGATAACTCTAGTGATCTT: the binding signal (log2 normalized intensity) is -0.388.

For the sequence ACGACCTTTGGACTTGAATTATCCTTATGG, the binding signal (log2 normalized intensity) turned out to be 6.27.

Turning to GACATTCCAGAAATACTTGTTATATTGGAT, the binding signal (log2 normalized intensity) worked out at 0.764.

As to GAAACAGGGGATGTTGATTCCCCTGTTGTC, the binding signal (log2 normalized intensity) is 0.0619.

For CCCTTTGGGAAGGGGCAAAAGAGAGCGAAG, the binding signal (log2 normalized intensity) was -1.08.

Turning to ACGCCCCACCCCCTCCACCCCTGCCTTTCA, the binding signal (log2 normalized intensity) was 6.39.

As for ACAGTTCCAGGAATGGAAACCCCTGTAAGT, the binding signal (log2 normalized intensity) is 0.871.

As for CCAAAGTCTAGATGCTGGGCAGCTTGTGTG, the binding signal (log2 normalized intensity) was determined as 1.15.

With GAGGCTTCTGGCCAGGCAGAGCAGGTTCTC, the binding signal (log2 normalized intensity) was -1.16.

Turning to AAGTACATTAATATACTGTGTATACAAAGA, the binding signal (log2 normalized intensity) stood at 1.36.

For the sequence TCTCCTGTTCTCTTTATTTATTAACTGGAG, the binding signal (log2 normalized intensity) was determined as 1.51.

In the case of CTGGAACTCAAAGGTCAAATGACAGAAGCA, the binding signal (log2 normalized intensity) was 3.02.

GCTAAGTGGAGGATTTGGGTGATGTTTGGT: the binding signal (log2 normalized intensity) turned out to be 1.88.

Take CACTCTTGCTATGCAAACAGACTGGCGGCG: the binding signal (log2 normalized intensity) is -0.994.

Regarding CTCAGAATCTGCCGATCACTGGCCCAGCTG, the binding signal (log2 normalized intensity) is -1.1.

As for AAGGGTCTCCTGGAATGCAAGACCTCAGCC, the binding signal (log2 normalized intensity) is -1.26.

For the sequence CACCTGCCTGAACAAGTCCAGTGACGGGTA, the binding signal (log2 normalized intensity) was -1.1.

Take CTTTGGACTTGAATTATCCTTATGGTCTCT: the binding signal (log2 normalized intensity) worked out at 0.855.

Take TTAACCTTTGATCTGTAAGCTCTCTGCTTA: the binding signal (log2 normalized intensity) was found to be 3.69.

With TAGAAGAAAGTCTTGATAAGAAACCCAAGA, the binding signal (log2 normalized intensity) was -1.04.

For GATGATTCTAAAGGCACAATCAGGGCTAAA, the binding signal (log2 normalized intensity) was -1.24.

TGAACTTCATGTGTGGTGCAGATTCCACAC: the binding signal (log2 normalized intensity) was 1.03.

GGACCTGAGGCTTTTGAGTCAATAATGGAC: the binding signal (log2 normalized intensity) was determined as 1.21.

For the sequence TCTGAGGGCTACTATCTGAAGACTTCCTCT, the binding signal (log2 normalized intensity) is -1.27.

Turning to GTACCTGCGACTGAGCCCTAAGAAATCTCC, the binding signal (log2 normalized intensity) was -1.1.

On to CCTGCATATCCTGACTGCTGACCTTTAAGC, for which the binding signal (log2 normalized intensity) was 4.85.

In the case of GGCGGGGCGGGGCAGCAGGGAAGAGCCGGC, the binding signal (log2 normalized intensity) is -1.13.

With CAGACTGCTGTGTTACTAGAGCCAAGGAAG, the binding signal (log2 normalized intensity) was -1.05.

Take GCGCATCGGGCGCCAGCGCCCCCGTGTGGC: the binding signal (log2 normalized intensity) worked out at 0.945.

TTCTCAACAGACCCCTGAATTGGTCATAAT: the binding signal (log2 normalized intensity) was 2.54.

Consider TCAAAAGGACTCCCAGAGCATACATGCAGC, for which the binding signal (log2 normalized intensity) is -1.11.

Regarding GCAGCAAGGCCTGAATGAGCTCTGGGGTCC, the binding signal (log2 normalized intensity) was -0.799.

Regarding GCCAATTCAGCAAACAAAGGCACTTCTCTC, the binding signal (log2 normalized intensity) is -0.96.

Regarding ACCTCCAAGAGGTTTTAGGCTATCAGACAG, the binding signal (log2 normalized intensity) is -1.12.

In the case of CCGCTGCTGTCTCGGGGCCAGGTGGGCTGC, the binding signal (log2 normalized intensity) is -1.05.

As for GCTGAGGCAGAGTTGTTTGCAGAGGGAAAG, the binding signal (log2 normalized intensity) is -1.

On to GGCTTATTTTAGGAGCCTCCAATCAGGACA, for which the binding signal (log2 normalized intensity) was -1.16.

As to GATGGCTATGAAGAAAAACAAGTGGAGTAG, the binding signal (log2 normalized intensity) was -0.907.

Regarding TGGCTGGGCCCTGACCTCAAGTGACCTTTG, the binding signal (log2 normalized intensity) was 7.17.

With CAAATGAATAATCCCCTCCTGGACTTTGGT, the binding signal (log2 normalized intensity) amounted to 4.73.

TGATTTGTATGATCTTGGGTATATCCTTTA: the binding signal (log2 normalized intensity) turned out to be 1.54.

As for TAGAAGCAGTGGGACAAAGGTCACAGGAAA, the binding signal (log2 normalized intensity) came to 4.42.

As for GAATGTTTTATGTGCTCCATCAGTGGTAAA, the binding signal (log2 normalized intensity) is 1.82.

AAGTGTTCAGCAAATACTAATTCTCCCCCA: the binding signal (log2 normalized intensity) is 4.01.

Take CATGAAATTGAGATAAACATGAAACAGTCA: the binding signal (log2 normalized intensity) is 0.00284.

As for GGCCAAAGAGCAAAGGACCAAAAGATATTT, the binding signal (log2 normalized intensity) is -0.55.

For the sequence AGCCCAACACGGGCGAAAAAGACGCGGTCT, the binding signal (log2 normalized intensity) is -1.22.

As to TAAACAAAGATACTCTCATCACTTAGGATA, the binding signal (log2 normalized intensity) is -1.12.

Take CCCTGCTGTGTCACGTACCGGCTAGACAAA: the binding signal (log2 normalized intensity) is -1.13.

Regarding TTTTGCCAAAGAGGTCTTATGCTCACATAC, the binding signal (log2 normalized intensity) was -0.754.

On to ATTAGAGCAACCAGAATGTTCAAAAGTGTG, for which the binding signal (log2 normalized intensity) is 1.33.

Turning to CTTTTCCTTATCATCACATGTGCAAGGGCA, the binding signal (log2 normalized intensity) turned out to be 2.53.

CTTGCACTGTAAGATCAAGATTAAGAAGAG: the binding signal (log2 normalized intensity) was -0.992.

GTCCCTGGCCAATCCCAGGGTCAGAGGTCG: the binding signal (log2 normalized intensity) is 5.85.

In the case of CTTCCAATGAAAGGTTAACCTGCTGGTTTA, the binding signal (log2 normalized intensity) was determined as 0.913.

Turning to TAGAGATAAGGTAACAGGCCAAAGGGCAAG, the binding signal (log2 normalized intensity) is 3.3.

With ATCATTCACGTGCCTGAGATTCCTTCAAAG, the binding signal (log2 normalized intensity) is -1.15.

On to GTGATAATAAATGTGTTTCATCAGTCCAAT, for which the binding signal (log2 normalized intensity) was found to be 1.76.

As for GATATTCCAAAAGGGCAGCAGTAACCCCCC, the binding signal (log2 normalized intensity) was determined as 4.57.

For the sequence ACGACGCTCCTATCATCCCTATCACTCAAG, the binding signal (log2 normalized intensity) is -0.806.

For CCCAGGGACTTTGGCCTTACTTGGCCTGTT, the binding signal (log2 normalized intensity) was 2.62.

As to TCAAAGGTTAATGAGCCCCCTAAAAAGAAA, the binding signal (log2 normalized intensity) came to 3.18.

Take AGGGCTCTCTCACCAGAAAAATGTACATGT: the binding signal (log2 normalized intensity) was determined as 0.989.

TCTAGACCTGGACTTGAAGCCAGACTCTGC: the binding signal (log2 normalized intensity) was -0.751.
